PubChem BioAssay (NCI)
Where “and” joins values, the source holds several entries; their conditions need not be identical. Equal entries are not always repeated.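 1) Cells in 96-well plates. 2) Compound, 48 h, 5 concentrations. 3) Linear interpolation between surrounding doses. 4) Unreached endpoint = highest concentration. Here, GI50 denotes the concentration required for 50% inhibition of growth. At the TGI there is no net growth.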

Test system: NCI-H322M lung
Assay: inhibition of tumour cell growth, NCI panel, 48 h

| SMILES | TGI | GI50 |
| --- | --- | --- |
| COc1cccc(C(=O)C#Cc2cnc(OC)nc2OC)c1 | 33.1 µM |  |
| COc1cc(-c2nn(-c3cccc(NC(=O)CCN4CCN(Cc5ccccc5)CC4)c3)cc2-c2ccncc2)ccc1Cl | 14.7 µM | 2.49 µM |
| N#C/C(C(=S)NCc1ccccc1)=C(/N)N1CCCC1 | > 100 µM |  |
| Cn1ccnc1Oc1ccc(Cl)cc1 | 40.2 µM |  |
| COc1ccc2c(-c3ccnc(Nc4cccc(OC(F)(F)F)c4)n3)cnn2n1 | > 16.7 µM | 3.95 µM |
| COc1cc2c3c([nH]c2c(OC)c1OC)CCN(Cc1ccccc1)C3 | > 100 µM |  |
| Oc1cc(-n2cccn2)c(O)cc1-n1cccn1 | > 87.3 µM |  |
| O=c1[nH]c2nc3ccccc3c(=O)n2/c1=C/c1ccco1 | > 100 µM |  |
| CC(=O)/C(=C\c1ccccc1O)C(=O)Nc1ccccc1C | 57.2 µM |  |
| COc1cc(Nc2nc3cc(C(F)(F)F)ccc3n3cccc23)cc(OC)c1OC | > 100 µM |  |
| CN1CCN(c2ccc3c(c2)NCC(=O)N3)CC1 | > 100 µM |  |
| CC(=O)O[C@@H]1C[C@@]2(C)[C@@H]3CC=C4[C@@H](C[C@H](O)C(=O)C4(C)C)[C@]3(C)C(=O)C[C@]2(C)[C@H]1[C@@](C)(O)C(=O)/C=C/C(C)(C)OC(C)=O | > 100 µM |  |
| NC(Cc1ccc(S(=O)(=O)O)cc1)C(=O)NC(Cc1ccc(S(=O)(=O)O)cc1)C(=O)NC(Cc1ccc(S(=O)(=O)O)cc1)C(=O)NC(Cc1ccc(S(=O)(=O)O)cc1)C(=O)O (stereo not given) | > 100 µM |  |
| CSc1ccc(C2=NN(C(C)=O)C(c3ccc(-c4ccc(Cl)cc4)o3)C2)cc1 (stereo not given) | 94.6 µM | 21.9 µM |
| COc1cc2cc(Oc3ccc(NC(=O)c4ccc(Cl)c(Cl)c4)cc3)c(C)nc2cc1OC | > 100 µM | > 100 µM |
| CN1CCN(CCCCCN=c2cc3c(=O)n(CCCCCN4CCN(C)CC4)c(=O)c4c(NCCCCCN5CCN(C)CC5)cc5c(O)n(CCCCCN6CCN(C)CC6)c(=O)c2c5c4-3)CC1 | 5.13 µM | 1.98 µM |
| O=C1CCCC/C1=C\c1ccc(Cl)c(Cl)c1 | 66.3 µM |  |
| O=c1c2cc(F)ccc2sc2c(NCCCNCCO)nc3ccccc3c12 | 3.05 µM | 1.63 µM |
| CCOc1ccc(NC(=O)CCc2nnc(SC)o2)cc1 | > 100 µM |  |
| O=C(O)CCNS(=O)(=O)c1ccc([N+](=O)[O-])cc1 | > 100 µM |  |
| N#Cc1nc(C#N)n(S(=O)(=O)c2ccccc2)c1NS(=O)(=O)c1ccccc1 | > 100 µM |  |
| O=C(NNS(=O)(=O)c1ccc(Cl)cc1Cl)c1cccnc1Nc1ccc(Cl)cc1 | 40.5 µM | 14.9 µM |
| COc1ccc(-c2cc(=O)c3c(O)cccc3o2)c(OC)c1OC | > 100 µM |  |
| c1ccc(CC2COC(c3cccs3)=N2)cc1 (stereo not given) | > 100 µM |  |

| SMILES | TGI | GI50 |
| --- | --- | --- |
| CNNC(=NS(=O)(=O)c1cc(C#N)c(NNC)cc1S)NNC | > 10 µM |  |
| OC(c1cccnc1Cl)c1nc2ccccc2c2ccnc(Cl)c12 (stereo not given) | > 100 µM |  |
| NNc1nnc(-c2nnc(NN)o2)o1 | > 10 µM |  |
| O=C(O)c1cc(CCc2cc(O)ccc2O)ccc1O | > 100 µM |  |
| Oc1cccc2c1NCCC2 | > 100 µM | 2.8 µM |
| CCOC(=O)Cn1nnc2ccc(Nc3nc4ccccc4nc3-c3ccccc3)cc21 | > 100 µM |  |
| COC(=O)C1CCC(=O)N1C(c1ccc2c(c1)OCO2)c1cc(OC)c(OC)c(OC)c1 (stereo not given) | > 100 µM |  |
| O=c1[nH]nc(-c2ccccc2)n1O | > 100 µM |  |
| COc1ccc(Nc2ccnc(N3CCN(c4ccnc5cc(Cl)ccc45)CC3)n2)cc1 | > 44.4 µM | 2.46 µM |
| COc1ccc(/C=C(/C)[N+](=O)[O-])cc1OC | 10.2 µM and 15.1 µM | 5.15 µM and 4.18 µM |
| COc1ccc2c3c1O[C@H](c1ccc(O)cc1)[C@H]3[N+](C)(C)CC2 | > 100 µM |  |
| Cc1ccncc1C(N)=O | > 100 µM | > 100 µM |
| N#CNc1nc(N)c(-c2ccc(Cl)cc2)c(C(=O)Nc2nccs2)n1 | > 100 µM |  |
| Cc1ccc(C2C3Cc4ccccc4C3=NN2c2ccc(S(=O)(=O)/N=c3\scc(-c4ccccc4)n3-c3ccccc3)cc2)cc1 (stereo not given) | 93.2 µM | 28 µM |
| CC(C)/C(Cl)=N/OC(=O)Nc1ccc(Cl)c(Cl)c1 | 30.1 µM |  |
| CC[C@@]1(O)C(=O)OCc2c1cc1n(c2=O)Cc2c-1nc1ccccc1c2/C=N\NC(=O)C(N)CCSC (stereo not given in full) | > 43.4 µM |  |
| Fc1ccc(/C=N/n2c(-c3ccc(F)c(Cl)c3)n[nH]c2=S)cc1 | 43.2 µM | 20.8 µM |
| CCCn1c(=O)c(N2CCN(c3ccccc3)CC2)nc2sc3ccccc3c21 | > 100 µM |  |
| O=NN(CCF)C(=O)NC1CCSCC1 | > 100 µM |  |
| N#CCCC1(CCC#N)CCCCCCCCC(CCC#N)(CCC#N)C(O)C1O (stereo not given) | > 100 µM |  |
| N#CCCNc1nonc1-c1nc2ccccc2n1CC(=O)c1ccc(NC(=O)[C@@H](N)CCCCN)cc1 | > 100 µM | 0.232 µM |
| COc1cc2c(cc1F)C(c1ccccc1Cl)=Nc1c(n[nH]c1C)N2 | 27.4 µM | 12.6 µM |
| CCCCCCCCCCCC[N+](CCCCCCCCCCCC)=C1SCCS1 | 31 µM |  |
| O=C1C=C(O)C(=Cc2c(O)cc(O)cc2O)C(O)=C1 | > 100 µM |  |

| SMILES | TGI | GI50 |
| --- | --- | --- |
| O=C(NCCNCCO)c1cccc2ccc(-c3ccccc3)nc12 | 20.2 µM |  |
| C[C@@H]1O[C@@H](O[C@@H]2[C@@H](O)[C@H](OCCc3ccc(O)c(O)c3)O[C@H](CO)[C@H]2OC(=O)/C=C/c2ccc(O)c(O)c2)[C@H](O)[C@H](OC2OC[C@](O)(CO)[C@H]2O)[C@H]1O (stereo not given in full) | > 100 µM | 84.8 µM |
| C[N+](C)(C)c1ncnc2c1ncn2C1CCCO1 (stereo not given) | > 100 µM |  |
| CC1=C(CC2C(=O)N(c3ccccc3)S(=O)(=O)NC2C)C(=O)N(c2ccccc2)S(=O)(=O)N1C (stereo not given) | > 100 µM |  |
| CC1c2ccccc2CCN1c1ccc(CO)c(Cl)c1 (stereo not given) | 23 µM | 2.6 µM |
| Nc1nc2c(C(=O)O)c3ccc([N+](=O)[O-])cc3c(=O)n2c2ccccc12 | > 100 µM |  |
| CCOC(=O)c1cc2c(cc1Cl)SC(=Nc1ccccc1)N(S(=O)(=O)c1ccc(Br)s1)S2(=O)=O | 50 µM | 20 µM |
| O=C(Cc1nc2ccccc2o1)C(=O)Nc1cccc(C(F)(F)F)c1 | > 100 µM |  |
| CCN(CC)c1nnc(CCCCCCCCc2nnc(N(CC)CC)o2)o1 | > 100 µM |  |
| Clc1ccc2oc(CCc3ccccc3)nc2c1 | > 100 µM |  |
| CC1(C)CC(=O)c2c(nc3c4c([nH]c(-c5ccc(Br)cc5)c24)CC(C)(C)C3)C1 | > 100 µM |  |
| O=C1N[C@@H]2C(=C[C@H](O)[C@@H](O)[C@H]2O)c2cc3c(c(O)c21)OCO3 | 0.0903 µM |  |
| Oc1c(-c2cc(C(F)(F)F)[nH]n2)cc(Cl)c(OCc2ccc(Cl)cc2)c1-c1ccc(Cl)c(C(F)(F)F)c1 | 5.55 µM | 0.564 µM |
| N[C@H](COCc1ccccc1)c1ccccc1 | 81 µM |  |
| CC(C)C[C@H](NC(=O)CCn1ccc2ccccc2c1=O)B(O)O | > 100 µM | 76.8 µM |
| O=Nc1c(-c2c(O)[nH]c3ncccc23)[nH]c2ccccc12 | > 100 µM | 2.94 µM |
| Cc1cc(NS(=O)(=O)c2ccc(NC(=O)c3cccc4c(Nc5ccc(S(N)(=O)=O)cc5)c5ccccc5nc34)cc2)no1 | > 100 µM |  |
| Cc1cc(C)c(C2CNCc3cc4c(cc32)CNCC4c2c(C)cc(C)cc2C)c(C)c1 (stereo not given) | 16.4 µg/mL | 4.88 µg/mL |
| NC(N)=NCCC(O)(P(=O)(O)O)P(=O)(O)O | > 100 µM |  |
| Clc1ccc(C2ON=C(c3ccccc3)N2C23CC4CC(CC(C4)C2)C3)cc1 (stereo not given) | > 10 µM |  |
| CC1CC(C#N)=C2NCCN2C1=O (stereo not given) | > 100 µM |  |
| COc1ccc(/C=C(\C)[N+](=O)[O-])cc1OC | 21.4 µM | 7.83 µM |
| COc1ccc(Nc2ccc([N+](=O)[O-])cc2[N+](=O)[O-])cc1CN(CCCl)CCCl | 11.8 µM | 2.6 µM |
